# Reference: the supplement of paper PMC5499739
# The full ranking holds about 16,000 sequences; the median of “Z-score” is about -0.37, and the highest 2% start at about 3.1. The list shows a part of the results.
# Tested on: RBM10 RRM1-ZnF-RRM2 (GST-tagged construct)
# Assay: RNAcompete 7-mer binding Z-score; higher = stronger binding preference
# How it was run: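 Bound RNA was identified by microarray hybridisation after GST-tagged RBM10 constructs (20 pmol) had been mixed with 1.5 nmol of a designed pool of 241 399 RNAs up to 41 nt, transcribed from microarray-derived DNA templates. Binding ran for 30 min at 4°C in 1 ml Hepes pH 7.8 buffer with KCl, NaCl, glycerol, DTT, BSA and glutathione Sepharose beads, with four 2-min washes at 4°C afterwards. For every heptamer motif, a one-sided Z-score for enrichment was computed across the probes that contained it.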
row,Sequence,RNAcompete 7-mer binding Z-score
1,UCUACUG,-0.694
2,UGAUAUG,0.243
3,CCUAGAC,-0.839
4,UCCCCGC,-0.624
5,UCAUUCA,-0.675
6,CAGCGGC,0.246
7,GGACUCG,0.0859
8,UUGGUCC,-0.628
9,AAGGCAU,1.32
10,GGGUGUG,3.51
11,ACGCGGG,1.81
12,CGCGGUG,0.986
13,AUGAGAA,0.574
14,UGAAAAU,-0.278
15,CAGAAUU,-0.351
16,ACGGGGC,2.37
17,UAAGAAA,-0.238
18,AUGAGGC,1.35
19,GACCCAU,-1.03
20,UGGUCUA,0.0823
21,UACGCUC,-0.526
22,CCUCACG,-0.806
23,AAGAGAC,0.141

row,Sequence,RNAcompete 7-mer binding Z-score
1,GGCUCGA,0.0386
2,AGGGUCU,0.559
3,UUUUGGC,-0.417
4,CCAGUCA,-0.511
5,UUGGUGA,1.39
6,ACAGGUA,2.6
7,GGUAUAG,1.99
8,UUUAGAG,0.0786
9,UGAAGAU,-0.00877
10,CCAGGUU,0.0349
11,UGACGUA,-0.0124
12,AUAUGAA,0.0677
13,GUAGCCA,0.283
14,GUACGGC,0.396
15,CCAAAUU,-0.759
16,UCUACUU,-0.912
17,GGCGCCA,-0.187
18,CGGUCCG,-0.522
19,AGUUGGC,0.687
20,GAUUGAC,-0.158
21,CGCCUUU,-0.967
22,ACUAACU,-0.839
23,AGUCCUA,-0.632

row,Sequence,RNAcompete 7-mer binding Z-score
1,GGCUCUC,-0.522
2,UCUCUGG,-0.595
3,AUACAGG,1.37
4,GGUAACU,0.396
5,AGGCUUC,-0.606
6,CUGAAUA,-0.584
7,CACAGGG,2.49
8,CUUCUGA,-0.766
9,AUCGAUA,-0.184
10,UCAUCGC,-0.865
11,CCGUGCC,-0.777
12,AUUGCGG,0.541
13,AUAUAGC,-0.293
14,CGCUGCU,-0.566
15,UUACGUA,-0.435
16,UAAUCGU,-0.5
17,AAUUAUA,-0.435
18,UCCCCGG,-0.479
19,GCAUUGU,-0.369
20,AAUGCUA,-0.442
21,GUACGUC,-0.388
22,GAAGCGU,0.534
23,AGCUCGU,-0.391

row,Sequence,RNAcompete 7-mer binding Z-score
1,ACCCUUC,-0.945
2,UUGCUCG,-0.708
3,AAGCUUG,-0.581
4,ACGGAAU,1.22
5,UGAUUGA,0.00216
6,CAUACCC,-0.719
7,CGCGGGG,2.32
8,CUUCGUG,-0.551
9,AGUCUAC,-0.431
10,GGUGGUA,2.86
11,ACCGAGG,0.778
12,CCCUAGA,-0.876
13,GCCCGUA,-0.781
14,GUAUCGU,-0.238
15,GUUGUAG,0.898
16,CAACCCC,-0.592
17,AUGAAGA,0.392
18,GAACGCU,-0.544
19,GCAGAUA,0.104
20,CUCAAUU,-0.777
21,AAUCUUG,-0.777
22,AAGCAAG,0.803
